# Data published in PubChem BioAssay AID720708 (National Center for Advancing Translational Sciences (NCATS), 2013).
# In all, about 360,000 compounds went through this assay and about 660 (0.18%) were called active. The inconclusive results got no clear call from the source; some entries with a clear call stand among them for comparison. Calls follow the shape of the dose curve; as a rule, active = well fitted inhibition curve with a large enough effect; inconclusive = small, poorly fitted or top-dose-only effect; inactive = no such curve, though single readings can be large or run the other way. No potency is given beside an inconclusive call; the fits are too rough.
# Molecular target: Rap guanine nucleotide exchange factor 4 (Homo sapiens) (UniProt Q8WZA2)
# Assay: qHTS for Antagonist of cAMP-regulated guanine nucleotide exchange factor 2 (EPAC2): primary screen; also: nearly all actives have a fitted effect of over 45% in size
# Conditions: EPAC2 GEF exchange of Rap1B-BODIPY-GDP, fluorescence; activity, negative = inhibition: at 114 µM (top of the series) unless noted
# % is scaled to controls: 0 for no effect and ±100 for the full control effect; potency is read from the fitted curve at half-maximal effect; tags tell the direction and shape of the fitted curve.
# UniProt Q8WZA2, sequence (Q8WZA2 whole entry, looked up): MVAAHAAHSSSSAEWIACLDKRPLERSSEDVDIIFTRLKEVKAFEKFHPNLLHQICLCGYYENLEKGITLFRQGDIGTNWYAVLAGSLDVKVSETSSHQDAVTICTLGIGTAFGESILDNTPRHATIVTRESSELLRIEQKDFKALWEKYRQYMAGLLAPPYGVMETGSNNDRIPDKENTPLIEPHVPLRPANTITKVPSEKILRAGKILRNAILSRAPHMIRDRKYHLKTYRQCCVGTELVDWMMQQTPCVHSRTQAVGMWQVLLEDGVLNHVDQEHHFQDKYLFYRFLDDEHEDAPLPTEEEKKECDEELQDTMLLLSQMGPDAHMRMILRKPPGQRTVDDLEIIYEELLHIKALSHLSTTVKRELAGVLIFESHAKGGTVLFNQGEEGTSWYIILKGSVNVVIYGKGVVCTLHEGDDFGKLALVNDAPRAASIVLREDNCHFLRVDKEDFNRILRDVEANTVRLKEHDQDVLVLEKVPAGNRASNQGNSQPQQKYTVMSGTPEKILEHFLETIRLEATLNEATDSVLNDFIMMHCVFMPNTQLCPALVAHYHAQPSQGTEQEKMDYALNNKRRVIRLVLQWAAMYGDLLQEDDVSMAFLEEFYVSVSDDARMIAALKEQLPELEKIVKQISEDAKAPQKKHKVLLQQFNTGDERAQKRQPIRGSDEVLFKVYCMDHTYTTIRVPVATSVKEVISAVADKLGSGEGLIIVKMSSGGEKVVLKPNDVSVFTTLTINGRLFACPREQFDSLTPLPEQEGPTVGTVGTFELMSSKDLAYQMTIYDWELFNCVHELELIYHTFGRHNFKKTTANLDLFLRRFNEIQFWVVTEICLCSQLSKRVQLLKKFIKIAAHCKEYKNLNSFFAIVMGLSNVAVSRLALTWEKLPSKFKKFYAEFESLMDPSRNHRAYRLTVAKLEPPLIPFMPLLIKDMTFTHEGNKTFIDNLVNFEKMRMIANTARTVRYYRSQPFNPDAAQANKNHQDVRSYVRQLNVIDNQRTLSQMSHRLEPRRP
SMILES,Potency,"activity, negative = inhibition"
CSc1ccc(S(=O)(=O)Nc2ccc3c(c2)OCCO3)cc1,"inconclusive [inhibitor, partial curve]",
COc1cccc([C@@H]2Oc3ccc(OC)cc3C(=O)[C@H]2OC(=O)Nc2cc(OC)c(OC)c(OC)c2)c1,"inconclusive [inhibitor, single point]",
C=CCNc1ncnc2c1[nH]c1ccc(Cl)cc12,"inconclusive [inhibitor, partial curve]",
O=C(OCC(=O)N1c2ccccc2Sc2ccccc21)c1cccnc1,"inconclusive [inhibitor, single point]",
O=C1C=CC(=O)N1N(c1ccccc1)c1ccccc1,,inactive: -0.465%
COc1ccc(C(=O)c2ccc(OC)c(Br)c2)cc1Br,,inactive: 13.1%
COc1ccc2oc(C(=O)Nc3nc4ccc(S(C)(=O)=O)cc4s3)c(C)c2c1,"inconclusive [inhibitor, full curve]",
CC1(C)CC(CCN(Cc2ccccc2)C(=O)c2ccco2)(c2ccccc2)CCO1 (stereo not drawn),"inconclusive [inhibitor, partial curve]",
COc1cc(NC(=O)CSc2ncnc3scc(-c4ccccc4)c23)c(C(=O)O)cc1OC,"inconclusive [inhibitor, partial curve, poor fit]",
CC(C)(C)C(=O)COC(=O)c1cc(-c2ccncc2)nc2ccccc12,"inconclusive [inhibitor, partial curve]",
Cc1c(OC(C)C(=O)NCc2ccncc2)ccc2c3c(c(=O)oc12)CCCC3 (stereo not drawn),,inactive: -0.197%
CCOC(=O)CSc1cccc2cccnc12,,inactive: -3.11%
C[C@H]1O[C@@H](O[C@H]2[C@@H](O)C[C@H](O[C@H]3[C@@H](O)C[C@H](O[C@H]4CC[C@@]5(C)[C@H](CC[C@@H]6[C@@H]5C[C@@H](O)[C@]5(C)[C@@H](C7=CC(=O)OC7)CC[C@]65O)C4)O[C@@H]3C)O[C@@H]2C)C[C@H](O)[C@@H]1O,,inactive: 7.12%
OC(CCN1CC2CCC(CC2)C1)(Cc1ccccc1)c1ccco1 (stereo not drawn),,inactive: -4.31%
Cn1ccc(C(=O)OCC(=O)Nc2ccccc2Cl)n1,,inactive: -0.995%
Cc1ccc([C@H]2C[C@H](O)[C@@H](n3cc(-c4ccc(F)cc4)nn3)CN2Cc2cccs2)cc1,,inactive: -16.4%
CCOc1cc(/C=C(\C#N)C(=O)Nc2ccccc2C(=O)O)ccc1OC(=O)c1ccc(C)cc1,"inconclusive [inhibitor, partial curve]",
CN(C)c1ccc(C(CNC(=O)c2ccc(C#N)cc2)c2c[nH]c3ccccc23)cc1 (stereo not drawn),"inconclusive [inhibitor, full curve, poor fit]",
O=C1/C(=C\c2ccc(O)c(O)c2)SC(=S)N1Cc1ccccc1,"inconclusive [inhibitor, single point]",
C/C(=N\NC(=O)c1ccc(N/N=C(\C)c2ccc(O)cc2)cc1)c1ccc(O)cc1,"inconclusive [inhibitor, partial curve]",
Cc1nnc(NC(=O)c2sc3nc(-c4cccs4)cc(C(F)(F)F)c3c2N)s1,,inactive: -1.67%
CCCc1c(-c2ccc(Cl)cc2)ncn1Cc1ccccc1OC,"inconclusive [inhibitor, partial curve]",
Cn1c(CNC(=O)C(Cc2ccccc2)NC(=O)c2ccccc2)cc(=O)n(C)c1=O (stereo not drawn),,inactive: 26.1%

SMILES,Potency,"activity, negative = inhibition"
COc1cc2c(cc1OC)C(c1cccs1)NCC2 (stereo not drawn),"inconclusive [inhibitor, single point]",
CCN(CC(=O)Nc1ccc(NC(C)=O)cc1)C(=O)C1(c2ccc(Cl)cc2)CCC1,"inconclusive [inhibitor, partial curve]",
CCn1c(CSCc2ccc(Cl)cc2)n[nH]c1=S,,inactive: -4.3%
CCOc1cc(/C=N/O)ccc1OS(=O)(=O)c1ccc(C)cc1,"inconclusive [inhibitor, single point]",
CCOc1ncccc1C(=O)OCC(=O)Nc1ccc(C(C)C)cc1,"inconclusive [inhibitor, partial curve, poor fit]",
CN(CC(=O)Nc1ccccc1F)CC(=O)Nc1ccc(F)c(F)c1F,"inconclusive [inhibitor, single point]",
Cc1ccc(-c2cc(C(=O)Nc3ccc(S(=O)(=O)Nc4nc(C)cc(C)n4)cc3)c3ccccc3n2)cc1,,inactive: -1.22%
CSc1ccc(Cl)c(C(=O)Nc2nccs2)c1,"inconclusive [inhibitor, partial curve]",
O=C(N/N=C/c1ccc(Br)cc1)c1ccc(Br)o1,,inactive: -7.91%
CN(C)c1ccnc2sc(C(=O)c3ccc(Br)cc3)c(N)c12,"inconclusive [inhibitor, single point]",
COc1cc2c(cc1OC)CN(C(=S)Nc1ccc(OC(F)F)cc1)CC2,"inconclusive [inhibitor, single point]",
CCOC(=O)C1C(=O)C=C(c2ccc(OC)cc2)CC1c1ccco1 (stereo not drawn),"inconclusive [inhibitor, full curve, poor fit]",
Cc1c(Cl)ccc2c(C(=O)O)cc(-c3ccccc3)nc12,"inconclusive [inhibitor, partial curve]",
Cc1ccc(SCCN2CCN(Cc3ccccc3)CC2)cc1,,inactive: 2.33%
CN(CC(=O)Nc1sc2c(c1C#N)CCCCC2)Cc1nc2ccccc2c(=O)[nH]1,"inconclusive [inhibitor, partial curve]",
O=C(CCN1CCOCC1)c1ccc(Br)cc1,,inactive: 12.4%
Cc1ccc(NC(=O)CN2C(=O)S/C(=C/c3ccc(O)c([N+](=O)[O-])c3)C2=O)cc1C,"inconclusive [inhibitor, partial curve]",
O=C(NCCc1ccc(F)cc1)c1cccc(NC(=O)c2ccccc2)c1,,inactive: -0.731%
CC1CCCCC1NC(=O)c1cc2c(=O)n3ccccc3nc2n1C (stereo not drawn),"inconclusive [inhibitor, single point]",
O=C1NC(=S)SC1=Cc1ccc(Cl)cc1,active: 50.1 µM,
Cc1ccc([C@@H]2CC=C(C(=O)O)[C@H](c3ccc(C(C)(C)C)cc3)N2S(=O)(=O)c2ccc(C)cc2)cc1,"inconclusive [inhibitor, partial curve]",
CCN(CC)C(=S)Oc1c(Cl)cccc1Cl,"inconclusive [inhibitor, partial curve]",
O=C(OCc1ccccc1)c1ccccc1O,,inactive: -22.7%

SMILES,Potency,"activity, negative = inhibition"
COc1cc(C2C(c3ccccc3)C(c3cc(OC)cc(=O)o3)C2c2ccccc2)oc(=O)c1 (stereo not drawn),"inconclusive [inhibitor, partial curve]",
COc1cccc(CN2C(=O)C(C)N(C(=O)c3c(F)cccc3F)c3ccccc32)c1 (stereo not drawn),"inconclusive [inhibitor, partial curve]",
CC1(C(=O)NCCc2c[nH]c3ccccc23)CCN1CC1CCCCC1 (stereo not drawn),"inconclusive [inhibitor, partial curve]",
Cc1ccc2nc(-c3cccc(Br)c3)c(Cc3ccccc3C(F)(F)F)n2c1,"inconclusive [inhibitor, partial curve]",
Cc1ccc(S(=O)(=O)N2CCCc3ccccc32)cc1,"inconclusive [inhibitor, partial curve]",
CC1=NN(C(=O)CSCc2ccccc2)C(O)(c2ccc(Cl)cc2)C1 (stereo not drawn),"inconclusive [inhibitor, partial curve]",
COC(=O)C1=C(Nc2ccccc2NS(=O)(=O)c2ccc(C(F)(F)F)cc2Cl)CSC1,"inconclusive [inhibitor, partial curve]",
CCNc1ncnc2[nH]ncc12,,inactive: 10.2%
COc1ccccc1-c1ccc2c(c1)C(C)(Cc1cc(Cl)ccc1C(F)(F)F)C(=O)N2 (stereo not drawn),"inconclusive [inhibitor, partial curve]",
COc1cc(C(=O)N/N=C/c2ccc(OC(=O)c3cccc(C)c3)c(OC)c2)ccc1O,"inconclusive [inhibitor, partial curve]",
COc1ccc2c(c1)CC/C(=C/c1cc(OC)c(OC)c(OC)c1)C2=O,,inactive: 6.91%
COC(=O)C(=O)C1CCc2c(Cl)cc(OC)c(OC)c2C1=O (stereo not drawn),,inactive: 2.18%
Cc1cnc(C(=O)N(c2ccc(N3CCOCC3)cc2)C2C(=O)Nc3ccccc3N=C2c2ccc(F)cc2)cn1 (stereo not drawn),"inconclusive [inhibitor, single point]",
Cc1ccc(-c2cc3ccccc3nc2N2CCOCC2)cc1,"inconclusive [inhibitor, partial curve]",
COc1ccc(NC2c3ccccc3C(=O)N2Cc2ccc3c(c2)OCO3)cc1 (stereo not drawn),"inconclusive [inhibitor, partial curve]",
Clc1ccccc1-c1ncc(-c2ccccc2)o1,"inconclusive [inhibitor, full curve, poor fit]",
COc1ccccc1CC(=O)N(Cc1ccccc1)c1ccc(C)cc1,"inconclusive [inhibitor, full curve]",
COc1cccc(-c2nn(Cc3ccccc3)cc2CO)c1,,inactive: -12.2%
CCCC(=O)N1c2ccccc2C(N(C(C)=O)c2ccccc2)CC1C (stereo not drawn),"inconclusive [inhibitor, single point]",
O=C(N/N=C/c1cccc(O)c1)c1ccccc1O,,inactive: 10.2%
COc1ccc(C)cc1N(CC(=O)Nc1cccnc1)S(=O)(=O)c1ccc(C)cc1,"inconclusive [inhibitor, partial curve, poor fit]",
COc1cc(C2c3c([nH]c(=O)[nH]c3=O)Nc3ccc4ccccc4c32)ccc1O (stereo not drawn),"inconclusive [inhibitor, partial curve]",
